According to PMC3486884 (PLoS Pathogens, 2012):

What was measured:
[1] = Liposome dextran-FITC de-quenching; details: pH 5.15
[2] = tested on: acidic endosomes in HeLa cells; experiment: Intracellular acridine orange and lysotracker pH assays; assay type: cell-based

SMILES | neutralization of acidic endosomes [2] | other results
O=[N+]([O-])c1ccc(O)c([N+](=O)[O-])c1 [2,4-DNP, 2,4-di-nitrophenol] | – | FITC-fluorescence of acidic liposomes (in words) ([1]; 200 nm liposomes, dextran-FITC): dequenched
O=C(Nc1ccc([N+](=O)[O-])cc1Cl)c1cc(Cl)cc(Cl)c1O [TVB-1326] | readily neutralized acidic endosomes | –
O=C(Nc1ccc([N+](=O)[O-])cc1Cl)c1cc(Cl)ccc1OCCOc1ccccc1 [TVB-1329] | readily neutralized acidic endosomes | –
O=C(Nc1ccc([N+](=O)[O-])cc1Cl)c1ccccc1O [TVB-1332] | readily neutralized acidic endosomes | –
N#CC(C#N)=NNc1cccc(Cl)c1 [m-CCCP, carbonylcyanid-m-chlorophenyl-hydrazone] | – | FITC-fluorescence of acidic liposomes (in words) [1]: dequenched
O=C(Nc1ccc([N+](=O)[O-])cc1Cl)c1cc(Cl)ccc1O [niclosamide, 5-chloro-N-(2-chloro-4-nitrophenyl)-2-hydroxybenzamide, reference compound] | increased the vesicular pH | –
